Data: paper PMC4336329 (PLoS ONE, 2015)
Out of some 310,000 compounds screened, about 2,200 (0.71%) showed an effect of 50% or more. Effects have a minus sign here. This is one part of the list.

target: human ether-à-go-go-related gene (hERG) potassium channel (human, UniProt Q12809); test: primary screen, population patch clamp on CHO cells stably expressing hERG
Sequence (Q12809 whole entry, looked up): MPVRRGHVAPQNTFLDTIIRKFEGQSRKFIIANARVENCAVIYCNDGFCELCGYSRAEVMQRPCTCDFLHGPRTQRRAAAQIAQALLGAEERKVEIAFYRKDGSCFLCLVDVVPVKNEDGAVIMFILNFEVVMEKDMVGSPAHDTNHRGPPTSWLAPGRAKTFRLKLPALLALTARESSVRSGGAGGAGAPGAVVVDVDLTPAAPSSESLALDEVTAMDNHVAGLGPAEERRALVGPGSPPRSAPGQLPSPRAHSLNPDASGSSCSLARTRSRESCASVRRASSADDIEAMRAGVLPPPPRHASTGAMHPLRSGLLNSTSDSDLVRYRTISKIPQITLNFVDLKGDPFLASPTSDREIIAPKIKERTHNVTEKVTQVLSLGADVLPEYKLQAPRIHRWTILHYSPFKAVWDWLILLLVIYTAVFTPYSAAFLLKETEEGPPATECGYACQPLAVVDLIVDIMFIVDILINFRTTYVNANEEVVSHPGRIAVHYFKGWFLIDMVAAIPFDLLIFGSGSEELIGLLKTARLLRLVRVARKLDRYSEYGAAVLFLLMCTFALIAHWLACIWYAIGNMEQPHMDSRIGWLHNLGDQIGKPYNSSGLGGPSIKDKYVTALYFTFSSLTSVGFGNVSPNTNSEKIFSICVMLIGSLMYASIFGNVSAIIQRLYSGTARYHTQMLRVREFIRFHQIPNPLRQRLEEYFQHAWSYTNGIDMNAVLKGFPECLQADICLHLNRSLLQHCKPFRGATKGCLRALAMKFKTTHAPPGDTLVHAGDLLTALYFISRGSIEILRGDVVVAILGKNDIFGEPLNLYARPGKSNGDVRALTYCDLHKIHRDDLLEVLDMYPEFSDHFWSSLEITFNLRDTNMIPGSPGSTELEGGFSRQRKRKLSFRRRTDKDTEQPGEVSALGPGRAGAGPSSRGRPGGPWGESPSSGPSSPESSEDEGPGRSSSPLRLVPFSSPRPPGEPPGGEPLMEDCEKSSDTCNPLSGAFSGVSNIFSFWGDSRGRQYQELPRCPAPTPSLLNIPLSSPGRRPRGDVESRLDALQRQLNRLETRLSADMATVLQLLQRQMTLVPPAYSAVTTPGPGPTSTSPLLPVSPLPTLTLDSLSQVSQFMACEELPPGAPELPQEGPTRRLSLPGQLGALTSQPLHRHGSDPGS

Row | SMILES | hERG current change (%, negative = inhibition) at 1uM [%]
1 | Cc1cc(C)n(C(C)CC(=O)Nc2ccc3c(c2)OCO3)n1 (stereo not drawn) | 14.8
2 | CO/N=C/C(=N\Nc1ccc(OC)cc1)C(=O)c1ccc(OC)cc1 | 27.5
3 | O=C(Nc1ccc(Cl)cn1)c1ccc2c(Cl)c3c(nc2c1)CCC3 | 9.73
4 | CCOC(=O)C1=C(N)OC2=C(C(=O)CCC2)C1c1ccccc1OCC (stereo not drawn) | 7.18
5 | Cc1nnc(SCc2cnc(-c3ccccc3)o2)[nH]c1=O | 13.9
6 | CCCCNc1ccc(C(=O)OCCN(C)C)cc1.Cl | 4.79
7 | COc1ccc(CNC(=O)COC(=O)c2cccnc2Nc2cccc(C(F)(F)F)c2)cc1 | 12.4
8 | COc1cccc(OC)c1C(=O)NC(=S)Nc1ccc2c(c1)C(=O)N(C)C2=O | 11
9 | Cc1ccc(NC(=O)COC(=O)Cc2c(F)cccc2Cl)cc1S(=O)(=O)N1CCOCC1 | -0.158
10 | Cc1ccc(Nc2nc3c(s2)CCC3)c(C)c1 | 12.5
11 | O=c1cc(C(F)(F)F)nc(-n2[nH]c3c(c2=O)CCCC3)[nH]1 | 16.8
12 | COc1cc(S(=O)(=O)NC2CCCC2)ccc1F | 5.66
13 | COc1ccc(-c2nc3ccccc3c(=O)o2)cc1 | 15.2
14 | Cc1cc(=O)c2cc(Cl)ccc2[nH]1 | 12.3
15 | O=C(CSc1ncn[nH]1)N/N=C/c1ccc(C(F)(F)F)cc1 | 13.8
16 | O=C(O)C1C2C=CC(C2)C1C(=O)Nc1ccc2c(c1)OCCO2 (stereo not drawn) | 11.5
17 | O=C(OCc1nnc(-c2ccccc2)o1)c1ccco1 | 2.86
18 | O=C(Cn1[nH]c(=O)c2ccccc2c1=O)OCC(=O)c1ccccc1 | 13.3
19 | Cc1cc(Nc2nc3ccccc3[nH]c2=O)n(-c2ccccc2)n1 | -4.75

Row | SMILES | hERG current change (%, negative = inhibition) at 1uM [%]
20 | C=CCOc1ccc(C(=O)c2ccccc2)c(OCC(=O)NC2(C#N)CCCC2)c1 | 9.68
21 | O=C(CSc1nnnn1Cc1ccccc1)NCC(=O)c1ccccc1 | 8.34
22 | Cc1ccc(C)c(OCc2cc(C(=O)N3C[C@H]4C[C@@H](C3)c3cccc(=O)n3C4)no2)c1 | 4.66
23 | OC(CNCc1ccc2c(c1)OCO2)COc1ccccc1 (stereo not drawn) | 1.66
24 | Cc1cccc(NC(=O)CNC(=O)Cc2ccc(S(=O)(=O)N3CCOCC3)s2)c1C | 8.74
25 | O=C(Cn1cc2c(n1)CCCCC2)NCCCN1CCOCC1 | 11.1
26 | Cn1c(SCc2ccccc2[N+](=O)[O-])nnc1-c1cccnc1 | 10.7
27 | Cc1nn(-c2ccccc2)c(Cl)c1/C=N/NC(=O)c1ccco1 | -9.19
28 | O=C(OC1Cn2c(=O)ccc(=O)n2C1)c1ccc([N+](=O)[O-])cc1 | 5.05
29 | COc1ccc(C(=O)c2oc3nc(C)cc(C)c3c2N)cc1 | 3.85
30 | CCOC(=O)C1CCN(S(=O)(=O)c2cnc[nH]2)CC1 | 12.8
31 | COc1cccc(NC(=O)CNS(=O)(=O)c2ccc3nc(C)sc3c2)c1 | 14.5
32 | Cc1ccc(OCCN(C)C)c([N+](=O)[O-])c1.O=C(O)C(=O)O | 8.54
33 | C[C@@H](C(=O)N1CCN(C(=O)OC(C)(C)C)CC1)n1cc(CCCN=C(NC(=O)OC(C)(C)C)NC(=O)OC(C)(C)C)nn1 | 7.38
34 | COc1ccc(NC(=O)c2cc(C)no2)cc1Cl | 13.9
35 | COc1cc(Cn2ccnc2)c(OC)cc1Cn1ccnc1 | -5.01
36 | COc1cc(OC)cc(-c2nnc(NC(=O)CCS(=O)(=O)c3ccc(C)cc3)o2)c1 | 11.6
37 | CCC(CC)C(=O)NCc1ccccc1Cl | 15.2
38 | CC1Sc2ccc(S(=O)(=O)CCC(=O)Nc3ccccc3Cl)cc2NC1=O (stereo not drawn) | 8.3

Row | SMILES | hERG current change (%, negative = inhibition) at 1uM [%]
39 | Cc1ccc(-n2c(O)c(/C=C/C=Nc3ccccc3)c(=O)[nH]c2=O)cc1 | 10.2
40 | CCc1ccccc1N1CSC2=C(C#N)C(c3ccccc3F)CC(=O)N2C1 (stereo not drawn) | 3.31
41 | COc1ccc(N2CCN(CC(=O)Nc3nc(C)cs3)CC2)cc1 | 15.2
42 | COCC(C)n1c(C)cc(C(=O)CSc2nc3ccccc3c(=O)[nH]2)c1C (stereo not drawn) | 23
43 | CC1(C)CC(=O)C/C(=N/NC(=O)COc2ccc(Cl)cc2Cl)C1 | 6.6
44 | Cc1ccc(/C=N/NC(=O)c2nnn(-c3nonc3N)c2CSc2ccccc2)o1 | 13.9
45 | CCC(C)(C)C1CCc2[nH]nc(C(=O)NN)c2C1 (stereo not drawn) | 12.7
46 | Cc1cc(C(=O)OCC(=O)Nc2cccc(S(=O)(=O)N3CCOCC3)c2)c(C)o1 | -2.17
47 | CCN(CC)C(=O)C1CCN(S(=O)(=O)c2ccc3c(c2)CCCN3C(=O)C2CCC2)CC1 | 12
48 | CCCN1C(=O)c2ccccc2NC1c1ccc(OC)cc1O (stereo not drawn) | -12.3
49 | Cc1cc(NC(=O)CCCC(=O)OCC(F)(F)C(F)F)cc(C)c1C(=O)O | 14.7
50 | CC(=O)c1c(-c2ccccc2)c2cc(Cl)ccc2n(C)c1=O | 9.98
51 | Cc1noc(/C=C/c2cccnc2)c1[N+](=O)[O-] | 8.58
52 | CC(C)c1cc(C(=O)Nc2sc3c(c2C#N)CCC3)no1 | 7.25
53 | O=C(Nc1ccc(S(=O)(=O)N2CCOCC2)cc1)c1cc(S(=O)(=O)N2CCOCC2)ccc1Cl | 16.4
54 | Cc1ccc(C(C(=O)Nc2ccc(C(C)C)cc2)N(C)C(=O)c2ccc(=O)[nH]c2)cc1 (stereo not drawn) | 14.8
55 | O=C(Nc1ccc(S(=O)(=O)N2CCOCC2)cc1)c1ccc(CN2CCc3ccccc3C2)cc1 | 7.63
56 | COc1cccc(-c2nn(-c3ccccc3)cc2/C=C(/NC(=O)c2ccccc2)C(=O)O)c1 | 6.01
57 | Cc1cccc2nc(COc3ccc(Cl)c4cccnc34)cn12 | 8.23
